# Experimental data reported in the supplement of paper PMC11417369.
# The list shows a part of the results.
# System: PfAP2-HC AP2 domain (GST-tagged)
# Test: gcPBM binding intensity (ln(normalized median fluorescence intensity)); higher = stronger DNA binding
# Procedure, shortened: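 Binding intensity values are the highest Masliner-normalised natural-log median intensity among replicate spots of either probe orientation. The binding step lasted 1 h in 1× PBS with 1% milk, 0.2 mg/ml BSA, 0.5% salmon testes DNA and 0.03% Triton X-100, using GST-tagged P. falciparum DNA-binding domains expressed in E. coli on an Agilent 4 × 180k array of primer-extended double-stranded 36-bp intergenic genomic probes plus negative controls. Alexa488 anti-GST antibody and a 488 nm scan detected bound protein.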
row,Sequence,gcPBM binding intensity (ln)
1,TATCATACCTTTTAATGTACACACATTTCTTTTTTG [XGTACX_site1655],10.1
2,TATAACTTTTTTAATACACACAAATATTTATTTATA [CACACA_site7425],9.61
3,TTTTACGTGAGTAATACACACATATAAGTTTATATA [CACACA_site4120],9.58
4,TATACAGATAAATACACACACATATATATATATATA [CACACA_site4178],9.86
5,ATATATATATGTGTGTGTACATATGATTTCGCACTT [XGTACX_site4449],10.3
6,GTTATAATTTAGTCAAGTACATGCGTATGTATATTC [XGTACX_site3763],9.78
7,CACAGAAATATTCTTATACACACTGTTCTTATATTC [CACACA_site288],9.82
8,TAATATATATTATATACACACATATATATATATATA [CACACA_site428],9.74
9,TACCACTTTCGAAGTAGTACATGGCTTTTTTTTTTT [XGTACX_site8379],9.61
10,TGTATGTTAAATACAACACACAAAAAAAAACAAGTT [CACACA_site4324],9.9
11,TATATATATATATGTACACACACACCGATAAATAAA [CACACA_site8041],10.2
12,AAAGAAAGAAAACACACACACATATATATATATCAA [CACACA_site3743],10.9
13,TTTTTGTCTGCATACGCACACACGTGGACCATCTTA [CACACA_site8303],10.5
14,ATTTCCCATACACGTTGTACAATGTAGAGAAAGTAT [XGTACX_site4586],9.53
15,GATATGTGTATAATATGTACATATATATATATATAT [XGTACX_site6531],9.96
16,CTATTTAAAATATGAACACACATTATTTGTTTTAGA [CACACA_site2713],9.56
17,ATATCATTATATAGTTGTACATATTTATTTATTTAT [XGTACX_site8995],9.88
18,AAAAAAAAAAATACTAGTACGTAAAATTATATAAAT [XGTACX_site3019],9.85
19,AATATAGGAATATGCACACATATATACCTACATACA [CACACA_site4939],9.95
20,TAATACTTATATAAAGGTACACAATTTAACCGAATG [XGTACX_site7173],9.63
21,GTAAATATTCATATATGTACTTATGATATTTGCTAA [XGTACX_site6828],9.57
22,ACATATATATATATATATTGATTTATTTATTTCCCT [CACACA_negctrl_site659],9.62

row,Sequence,gcPBM binding intensity (ln)
1,ATATATATATATAAATGTACAAAAATATATATGTAA [XGTACX_site4531],9.92
2,CTTCCTTAGGAATGTACACACATATAAAATATGTTG [CACACA_site6355],9.71
3,AAGAAAGAGTTCTGTTGTACAAAATATTAATATGTA [XGTACX_site7213],9.78
4,TTTTGGTTAATTCCCCCCATTACATTATGTCATGTC [CACACA_negctrl_site229],9.87
5,TTTCATTTTTTTACATGTACGCAAAAGTGTGTAGTT [XGTACX_site6582],9.78
6,AACAAAATAAAAAGTAATCTTATTTATTAAAATTTT [CACACA_negctrl_site419],9.48
7,TTTATTAAGAAACACACACACACACCCAAAATAAAA [CACACA_site242],10.5
8,CTTTATTATAAGATTACACACATGTGTTCTAATTTA [CACACA_site7479],10.1
9,TAATTAACTTTATATGCATGTTAAAAATGTTATAAG [TGCATGCA_site761],9.48
10,TATAAACAAAACAAAACATGCATAATACTATAAATT [TGCATGCA_site333],9.81
11,TATACGCAGAAACACACACACAAAAAAAAAAAAAAA [CACACA_site427],10.5
12,TATAATAAATCGAACTGTACATATATATATATATAT [XGTACX_site7097],9.57
13,ATTCGGATCTATAAGTGTACACAATCTAGCGAAAAG [XGTACX_site3088],9.61
14,TTTATTCAAATATAATGTACTTTCTACAAATTCAAT [XGTACX_site8119],9.43
15,CATATATAAATATATACACACATATATATATATATA [CACACA_site1365],9.66
16,ATTTTTTTTGCTAAGTGTACACAAATGTTTATTAAT [XGTACX_site7440],9.9
17,GCTAATAATAAAAGCATAATGAACAAACACCCAGTA [CACACA_negctrl_site806],10.4
18,TTATATAACACGGGGAGGACACAAGAAATAAAGAGC [XGTACX_site2148],9.89
19,TTTTTCTGTTTTTATAGCCTTCTCATAATACATAAA [TGCATGCA_negctrl_site355],9.42
20,CAGATAAGATTTTGTGGTACTATTTATTAAATTAGA [XGTACX_site2644],9.51
21,ATATTTTCCCTTTATAGGAGCACAAAAATTAAATGT [CACACA_negctrl_site1114],9.32
22,ATTCACAAATATATGGTGCATAATATATATATATAT [GTGCAC_site9674],9.63

row,Sequence,gcPBM binding intensity (ln)
1,AACAATTATTGTAATGCATGCACTGAATATAGAAAG [TGCATGCA_site889],9.86
2,AGCGTATAACATATGACACACACACCGACATACACA [CACACA_site8532],10.3
3,ATATATATATGGAAGTGTACTTATATAGCATACTAG [XGTACX_site5130],9.77
4,TACGTATCATAATTTTATTTTATATATATTCACAAA [XGTACX_negctrl_site144],9.43
5,AAATTTTTATAATTATCACACATTGAATTGTGGTCT [CACACA_site4343],9.72
6,AATATGTAAATATGGGTGCTTTAAAATATATTCATT [GTGCAC_site9583],9.64
7,TTCCAATGATAAAATTGTACTTGAAGAAAATTTTTT [XGTACX_site4607],9.37
8,GACATAGTCATATACTGTACTTTATATTATTGTGTA [XGTACX_site6636],9.66
9,TTTTTTTTCATTGGTTGTACAATATTTATAATTCAC [XGTACX_site7036],9.71
10,TTTTTTTTTTTTTTTTGTACTTATAAAAAATTTTTT [XGTACX_site1249],8.97
11,TACAGATATAAACACACACACATATATATATATATA [CACACA_site4846],10.2
12,AATCCCCACTTGTCAAGTACATATATCATGGATGAA [XGTACX_site3486],9.5
13,TATTTATAACAAAGGTTAAATTAAAACTAATCCACA [TGCATGCA_negctrl_site3],9.5
14,GCCAAAATCTAATTTACACACTTATTAAATAATTAC [CACACA_site6251],9.72
15,TATATTAAAAAAGAGGTGCATTCGTAAGAGGTTAAA [GTGCAC_site9720],9.74
16,TCATATTGGCTGTTCTGTACTTATAAGTTTTAAAGA [XGTACX_site5593],9.62
17,ATGTAATATTTACAACGTACAAATTATAAACATATT [XGTACX_site603],9.8
18,TTTGTTAATATAAAAACACACAAAAATAACATAAAA [CACACA_site2619],9.85
19,AAAAAATTCATATATACACACACGCACATATATATA [CACACA_site4226],10.2
20,TATTATATATATGTTGACATATTTGTACACTCCACT [TGCATGCA_negctrl_site200],9.83
21,AAAATATTTCATATATGTACTTAAAAAAAAAAAAAA [XGTACX_site5399],9.34
22,GAATATATAAGATACACACACAAATTAAATATAAAA [CACACA_site2781],10.6

row,Sequence,gcPBM binding intensity (ln)
1,CACTTTTCTGGAAAAATTCCCACATTTTTTTATTAA [GTGCAC_negctrl_site322],9.5
2,AAAAAAAAAAAAAACACACACACACGCATAAATATA [CACACA_site6217],11.5
3,GTACAAAAAAAAATAAAATACATATATATATATATA [GTGCAC_negctrl_site364],9.47
4,TCATAAAAACTAATACGTACTTAAAAATATGAACTT [XGTACX_site2939],9.61
5,AAAAAAAAGTTGTATTGTACAAAAAAAAAAAAAAAA [XGTACX_site8334],9.24
6,GATAAAGTACTTTATACACACAAATATTTATTTATA [CACACA_site7795],9.8
7,TCTTCATATAAGAACACATGCAGATTTTTATTATTG [TGCATGCA_site682],9.67
8,TTATGTAAAAAAAAAAAAAAAAAAAAAAAAAAAAAA [CACACA_negctrl_site984],9.05
9,CATATAATATAATTATGTACATATATAATAATATAC [XGTACX_site5278],9.71
10,AAAAAAAAAAAAAAACGTACACATATTATGTTATTT [XGTACX_site5264],9.75
11,AAAAAAAAAAAAGAACGTACAAATTAATTTATAGAA [XGTACX_site5584],9.68
12,TATTTACAAAAAAAATATAAAAAATATAAAATATAT [CACACA_negctrl_site575],9.26
13,TGTATAATATTTGGTGCACACAAATTAACAACTGTT [CACACA_site9245],10.1
14,AATATTAAAATAAAAAGTACTTATTTATGTATGTTG [XGTACX_site2682],9.69
15,TTTATATAACAACAAAATGGAAATATATATGTATGT [TGCATGCA_negctrl_site98],9.65
16,TACACAAATATATACATACACACATATATACGCATA [CACACA_site394],9.97
17,TAATATTGACTATATACACACATATATATATATATA [CACACA_site575],9.8
18,CAGACATATTAAAAGAGTACATATATATATATATAT [XGTACX_site1158],10.1
19,TGTTTATTACTCAGGTGTACTCAATTTTTTTTTTTT [XGTACX_site3470],9.63
20,TATTTTTAAAATATAAGTAAAAAAATAATATAAACT [TGCATGCA_negctrl_site283],9.61
21,AATAAATAAAGAAGTACACACATATATATATATATA [CACACA_site4314],10.1
